Measurements reported in patent US20250179210A1 (Merck KGaA, published 2025).

B1: ADC6-M (conjugate of mAb6-M with DL1) (antibody, human IgG1, kappa)
heavy: EVQLQESGPGLVKPSQTLSLTCTVSDGSVSRGGYYLTWIRQHPGKGLEWIGYIYYSGSTYFNPSLRSRVTMSVDTSKNQFSLKLSSVTAADTAVYYCARGIAVAPFDYWGQGTLVTVSSASTKGPSVFPLAPSSKSTSGGTAALGCLVKDYFPEPVTVSWNSGALTSGVHTFPAVLQSSGLYSLSSVVTVPSSSLGTQTYICNVNHKPSNTKVDKRV[letters of human IgG1 Fc with changes left out]
light: EIVLTQSPATLSVSPGERATLSCRTSQSVRSNLAWYQQKPGQAPRLLIYAASTRATGIPARFSGSGSGTEFTLTISSLQSEDFAVYYCQQYTNWPFTFGPGTKVDIKRTVAAPSVFIFPPSDEQLKSGTASVVCLLNNFYPREAKVQWKVDNALQSGNSQESVTEQDSKDSTYSLSSTLTLSKADYEKHKVYACEVTHQGLSSPVTKSFNRGEC
modifications: DL1 by interchain cysteine conjugation; DL1 (maleimido b-glucuronide-exatecan) by interchain cysteine conjugation; DAR 8.14
B2: ADC7-M (conjugate of mAb7-M with DL1-M) (antibody, human IgG1, kappa)
heavy: EVQLQESGPGLVKPSQTLSLTCTVSDGSVSRGGYYLTWIRQHPGKGLEWIGYIYYSGSTYFNPSLRSRVTMSVDTSKNQFSLKLSSVTAADTAVYYCARGIAVAPFDYWGQGTLVTVSSASTKGPSVFPLAPSSKSTSGGTAALGCLVKDYFPEPVTVSWNSGALTSGVHTFPAVLQSSGLYSLSSVVTVPSSSLGTQTYICNVNHKPSNTKVDKRV[letters of human IgG1 Fc with changes left out]
light: EIVLTQSPATLSVSPGERATLSCRTSQSVRSNLAWYQQKPGQAPRLLIYAASTRATGIPARFSGSGSGTEFTLTISSLQSEDFAVYYCQQYTNWPFTFGPGTKVDIKRTVAAPSVFIFPPSDEQLKSGTASVVCLLNNFYPREAKVQWKVDNALQSGNSQESVTEQDSKDSTYSLSSTLTLSKADYEKHKVYACEVTHQGLSSPVTKSFNRGECGGTLQSPP
modifications: MTG tag GGTLQSPP at the C-terminus is a conjugation site for DL1-M; DL1-M (NH2-GGG-b-glucuronide-exatecan) coupled by microbial transglutaminase; DAR 3.87 for the whole antibody; residues carrying the drug not stated

Target: T1, human CEACAM5 expressed on human cancer cell lines (MKN-45, NCI-H441, SK-CO-1, SNU-16, LS174T) (human, UniProt P06731 35-685)
T1 sequence: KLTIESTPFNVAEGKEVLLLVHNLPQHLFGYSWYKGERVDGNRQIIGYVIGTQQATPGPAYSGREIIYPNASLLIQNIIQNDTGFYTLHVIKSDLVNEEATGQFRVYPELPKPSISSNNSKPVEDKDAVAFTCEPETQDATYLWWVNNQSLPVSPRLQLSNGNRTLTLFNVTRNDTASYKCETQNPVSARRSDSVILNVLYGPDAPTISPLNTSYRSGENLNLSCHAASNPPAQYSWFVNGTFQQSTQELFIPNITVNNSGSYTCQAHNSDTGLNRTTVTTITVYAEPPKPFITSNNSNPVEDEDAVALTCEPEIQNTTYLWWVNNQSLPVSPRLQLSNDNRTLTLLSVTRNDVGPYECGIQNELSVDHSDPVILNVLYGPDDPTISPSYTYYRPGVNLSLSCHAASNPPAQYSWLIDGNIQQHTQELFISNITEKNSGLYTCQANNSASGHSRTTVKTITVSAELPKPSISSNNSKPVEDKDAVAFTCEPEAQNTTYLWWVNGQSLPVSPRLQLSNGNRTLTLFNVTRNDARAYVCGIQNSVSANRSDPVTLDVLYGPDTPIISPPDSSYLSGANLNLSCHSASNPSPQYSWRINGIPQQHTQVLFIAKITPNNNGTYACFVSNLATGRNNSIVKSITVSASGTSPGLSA
Experiment: cell-based or functional assay

Binder | SPECIFICITY FACTOR (IC50 in CEACAM5-negative MDA-MB-231 divided by IC50 in MKN-45) | SPECIFICITY FACTOR (IC50 in CEACAM5-negative MDA-MB-231 divided by IC50 in SK-CO-1) | SPECIFICITY FACTOR (IC50 in CEACAM5-negative MDA-MB-231 divided by IC50 in SNU-16) | SPECIFICITY FACTOR (IC50 in MDA-MB-231, set to 100 nM, divided by IC50 in MKN-45) | SPECIFICITY FACTOR (IC50 in MDA-MB-231, set to 100 nM, divided by IC50 in SK-CO-1) | SPECIFICITY FACTOR (IC50 in MDA-MB-231, set to 100 nM, divided by IC50 in SNU-16)
B1 | 158 fold | 710 fold | 195 fold |  |  | 
B2 |  |  |  | > 116 fold | > 596 fold | > 179 fold
